# Results reported in the supplement of paper PMC8728848.
# The other results are listed elsewhere or left out.
# Assays:
# Assay in all cases: glycan array binding signal (z-score within array); higher = stronger binding
# Conditions in all cases: glycan notation: IUPAC condensed, linker removed
# Fuc(a1-2)Gal = target: Fuc(a1-2)Gal
# Outline: (§1)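 Glycan array data came from 3228 arrays in the Consortium for Functional Glycomics database, and only arrays with an available protein sequence were kept. Glycan names were put into IUPAC-condensed notation, and columns mapping to the same glycan were averaged. The binding signal is a within-array Z-score, averaged across arrays of one protein sequence run at different concentrations or buffers and across linkers. A negative Z-score can be read as non-binding.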
# Fuc(a1-2)Gal(b1-3)GalNAc = target: Fuc(a1-2)Gal(b1-3)GalNAc
# Outline: as §1
# [1] = target: Fuc(a1-2)Gal(b1-3)GalNAc(b1-3)Gal
# Outline: as §1
# [2] = target: Fuc(a1-2)Gal(b1-3)GalNAc(b1-3)Gal(a1-4)Gal(b1-4)Glc
# Outline: as §1
# [3] = target: Fuc(a1-2)Gal(b1-3)GalNAc(b1-4)[Neu5Ac(a2-3)]Gal(b1-4)Glc
# Outline: as §1
# Fuc(a1-2)Gal(b1-3)GlcNAc = target: Fuc(a1-2)Gal(b1-3)GlcNAc
# Outline: as §1
# [4] = target: Fuc(a1-2)Gal(b1-3)GlcNAc(b1-3)Gal(b1-4)Glc
# Outline: as §1
# [5] = target: Fuc(a1-2)Gal(b1-3)[Fuc(a1-4)]GlcNAc
# Outline: as §1
# Fuc(a1-2)Gal(b1-4)Glc = target: Fuc(a1-2)Gal(b1-4)Glc
# Outline: as §1
# Fuc(a1-2)Gal(b1-4)GlcNAc = target: Fuc(a1-2)Gal(b1-4)GlcNAc
# Outline: as §1
# [6] = target: Fuc(a1-2)Gal(b1-4)GlcNAc(b1-3)Gal(b1-4)GlcNAc
# Outline: as §1
# [7] = target: Fuc(a1-2)Gal(b1-4)GlcNAc(b1-3)Gal(b1-4)GlcNAc(b1-3)Gal(b1-4)GlcNAc
# Outline: as §1
# [8] = target: Fuc(a1-2)Gal(b1-4)[Fuc(a1-3)]GlcNAc
# Outline: as §1
# [9] = target: Fuc(a1-2)Gal(b1-4)[Fuc(a1-3)]GlcNAc(b1-3)Gal(b1-4)[Fuc(a1-3)]GlcNAc
# Outline: as §1
# [10] = target: Fuc(a1-2)Gal(b1-4)[Fuc(a1-3)]GlcNAc(b1-3)Gal(b1-4)[Fuc(a1-3)]GlcNAc(b1-3)Gal(b1-4)[Fuc(a1-3)]GlcNAc
# Outline: as §1
# Fuc(a1-2)GlcNAc = target: Fuc(a1-2)GlcNAc
# Outline: as §1
# Fuc(a1-2)[Gal(a1-3)]Gal = target: Fuc(a1-2)[Gal(a1-3)]Gal
# Outline: as §1
# [11] = target: Fuc(a1-2)[Gal(a1-3)]Gal(b1-3)GlcNAc
# Outline: as §1
# [12] = target: Fuc(a1-2)[Gal(a1-3)]Gal(b1-4)Glc
# Outline: as §1
# [13] = target: Fuc(a1-2)[Gal(a1-3)]Gal(b1-4)GlcNAc
# Outline: as §1
# [14] = target: Fuc(a1-2)[Gal(a1-3)]Gal(b1-4)[Fuc(a1-3)]GlcNAc
# Outline: as §1
# [15] = target: Fuc(a1-2)[Gal(a1-4)]Gal(b1-4)GlcNAc
# Outline: as §1
# [16] = target: Fuc(a1-2)[GalNAc(a1-3)]Gal
# Outline: as §1
# [17] = target: Fuc(a1-2)[GalNAc(a1-3)]Gal(b1-3)GlcNAc
# Outline: as §1
# [18] = target: Fuc(a1-2)[GalNAc(a1-3)]Gal(b1-4)Glc
# Outline: as §1
# [19] = target: Fuc(a1-2)[GalNAc(a1-3)]Gal(b1-4)GlcNAc
# Outline: as §1
# [20] = target: Fuc(a1-2)[GalNAc(a1-3)]Gal(b1-4)[Fuc(a1-3)]GlcNAc
# Outline: as §1
# [21] = target: Fuc(a1-2)[GalNAc(a1-4)]Gal(b1-4)GlcNAc
# Outline: as §1
# [22] = target: Fuc(a1-2)[GalNAc(b1-3)]Gal
# Outline: as §1
# Fuc(a1-3)GlcNAc = target: Fuc(a1-3)GlcNAc
# Outline: as §1
# [23] = target: Fuc(a1-3)[Gal(b1-4)]GlcNAc
# Outline: as §1
# [24] = target: Fuc(a1-3)[Gal(b1-4)]GlcNAc(b1-4)Gal(b1-4)[Fuc(a1-3)]GlcNAc
# Outline: as §1
# [25] = target: Fuc(a1-3)[Gal(b1-4)]GlcNAc(b1-4)Gal(b1-4)[Fuc(a1-3)]GlcNAc(b1-4)Gal(b1-4)[Fuc(a1-3)]GlcNAc
# Outline: as §1
# [26] = target: Fuc(a1-3)[Gal3S(b1-4)]GlcNAc
# Outline: as §1
# [27] = target: Fuc(a1-3)[GalNAc(b1-4)]GlcNAc
# Outline: as §1
# Fuc(a1-4)GlcNAc = target: Fuc(a1-4)GlcNAc
# Outline: as §1
# Fuc(b1-3)GlcNAc = target: Fuc(b1-3)GlcNAc
# Outline: as §1
# Gal(a1-2)Gal = target: Gal(a1-2)Gal
# Outline: as §1
# Gal(a1-3)Gal = target: Gal(a1-3)Gal
# Outline: as §1
# Gal(a1-3)Gal(b1-3)GlcNAc = target: Gal(a1-3)Gal(b1-3)GlcNAc
# Outline: as §1
# Gal(a1-3)Gal(b1-4)Glc = target: Gal(a1-3)Gal(b1-4)Glc
# Outline: as §1
# Gal(a1-3)Gal(b1-4)GlcNAc = target: Gal(a1-3)Gal(b1-4)GlcNAc
# Outline: as §1
# [28] = target: Gal(a1-3)Gal(b1-4)[Fuc(a1-3)]GlcNAc
# Outline: as §1
# Gal(a1-3)GalNAc = target: Gal(a1-3)GalNAc
# Outline: as §1
# [29] = target: Gal(a1-3)[Gal(a1-4)]Gal(b1-4)GlcNAc
# Outline: as §1
# Gal(a1-4)Gal(b1-4)Glc = target: Gal(a1-4)Gal(b1-4)Glc
# Outline: as §1
# Gal(a1-4)Gal(b1-4)GlcNAc = target: Gal(a1-4)Gal(b1-4)GlcNAc
# Outline: as §1
# Gal(a1-4)GlcNAc = target: Gal(a1-4)GlcNAc
# Outline: as §1
# Gal(a1-6)Glc = target: Gal(a1-6)Glc
# Outline: as §1
# Gal(b1-2)Gal = target: Gal(b1-2)Gal
# Outline: as §1
# Gal(b1-3)Gal = target: Gal(b1-3)Gal
# Outline: as §1
# Gal(b1-3)GalNAc = target: Gal(b1-3)GalNAc
# Outline: as §1
# [30] = target: Gal(b1-3)GalNAc(b1-3)Gal(a1-4)Gal(b1-4)Glc
# Outline: as §1
# [31] = target: Gal(b1-3)GalNAc(b1-4)Gal(b1-4)Glc
# Outline: as §1
# [32] = target: Gal(b1-3)GalNAc(b1-4)[Neu5Ac(a2-3)]Gal(b1-4)Glc
# Outline: as §1
# Gal(b1-3)GlcNAc = target: Gal(b1-3)GlcNAc
# Outline: as §1
# [33] = target: Gal(b1-3)GlcNAc(b1-3)Gal(b1-4)Glc
# Outline: as §1
# [34] = target: Gal(b1-3)GlcNAc(b1-3)Gal(b1-4)GlcNAc
# Outline: as §1
# [35] = target: Gal(b1-3)[Fuc(a1-4)]GlcNAc
# Outline: as §1
# [36] = target: Gal(b1-3)[Fuc(a1-4)]GlcNAc(b1-3)Gal(b1-4)GlcNAc
# Outline: as §1
binder,measurement,setting,value
"F17eG (Escherichia coli), Q9RH92 (protein) MTNFYKVFLAVFILVCCNISHAAVSFIGSTENDVGPSQSSYSRTHAMDNLPFVYNTGYNIGYQNANVWRISGGFCVGLDGKVDLPVVGSLDGQSIYGLTEEVGLLIWMGDTNYSRGTAMSGNSWENVFSGWCVGNYVSTQGLSVHVRPVILKRNSSAQYSVQKTSIGSIRMRPYNGSSAGSVQTTVNFSLNPFTLNDTVTSCRLLTPSAVNVSLAAISAGQLPSSGDEVVAGTTSLKLQCDAGVTVWATLTDATTPSNRSDILTLTGASTATGVGLRIYKNTDSTPLKFGPDSPVKGNENQWQLSTGTETSPSVRLYVKYVNTGEGINPGTVNGISTFTFSYQ",glycan array binding signal (z-score),Fuc(a1-2)Gal,-0.293
same,glycan array binding signal (z-score),Fuc(a1-2)Gal(b1-3)GalNAc,-0.013
same,glycan array binding signal (z-score),[1],-0.314
same,glycan array binding signal (z-score),[2],-0.314
same,glycan array binding signal (z-score),[3],-0.298
same,glycan array binding signal (z-score),Fuc(a1-2)Gal(b1-3)GlcNAc,-0.285
same,glycan array binding signal (z-score),[4],-0.263
same,glycan array binding signal (z-score),[5],-0.314
same,glycan array binding signal (z-score),Fuc(a1-2)Gal(b1-4)Glc,-0.315
same,glycan array binding signal (z-score),Fuc(a1-2)Gal(b1-4)GlcNAc,-0.283
same,glycan array binding signal (z-score),[6],-0.286
same,glycan array binding signal (z-score),[7],-0.298
same,glycan array binding signal (z-score),[8],-0.314
same,glycan array binding signal (z-score),[9],-0.288
same,glycan array binding signal (z-score),[10],-0.31
same,glycan array binding signal (z-score),Fuc(a1-2)GlcNAc,-0.176
same,glycan array binding signal (z-score),Fuc(a1-2)[Gal(a1-3)]Gal,-0.314
same,glycan array binding signal (z-score),[11],-0.312
same,glycan array binding signal (z-score),[12],-0.255
same,glycan array binding signal (z-score),[13],-0.189
same,glycan array binding signal (z-score),[14],-0.26
same,glycan array binding signal (z-score),[15],-0.303
same,glycan array binding signal (z-score),[16],-0.294
same,glycan array binding signal (z-score),[17],-0.254
same,glycan array binding signal (z-score),[18],-0.277
same,glycan array binding signal (z-score),[19],-0.282
same,glycan array binding signal (z-score),[20],-0.3
same,glycan array binding signal (z-score),[21],-0.312
same,glycan array binding signal (z-score),[22],-0.313
same,glycan array binding signal (z-score),Fuc(a1-3)GlcNAc,-0.311
same,glycan array binding signal (z-score),[23],-0.305
same,glycan array binding signal (z-score),[24],-0.095
same,glycan array binding signal (z-score),[25],-0.314
same,glycan array binding signal (z-score),[26],-0.147
same,glycan array binding signal (z-score),[27],-0.309
same,glycan array binding signal (z-score),Fuc(a1-4)GlcNAc,-0.312
same,glycan array binding signal (z-score),Fuc(b1-3)GlcNAc,-0.315
same,glycan array binding signal (z-score),Gal(a1-2)Gal,-0.313
same,glycan array binding signal (z-score),Gal(a1-3)Gal,-0.296
same,glycan array binding signal (z-score),Gal(a1-3)Gal(b1-3)GlcNAc,-0.316
same,glycan array binding signal (z-score),Gal(a1-3)Gal(b1-4)Glc,-0.307
same,glycan array binding signal (z-score),Gal(a1-3)Gal(b1-4)GlcNAc,-0.312
same,glycan array binding signal (z-score),[28],-0.313
same,glycan array binding signal (z-score),Gal(a1-3)GalNAc,-0.302
same,glycan array binding signal (z-score),[29],-0.309
same,glycan array binding signal (z-score),Gal(a1-4)Gal(b1-4)Glc,-0.293
same,glycan array binding signal (z-score),Gal(a1-4)Gal(b1-4)GlcNAc,-0.306
same,glycan array binding signal (z-score),Gal(a1-4)GlcNAc,-0.307
same,glycan array binding signal (z-score),Gal(a1-6)Glc,-0.29
same,glycan array binding signal (z-score),Gal(b1-2)Gal,-0.309
same,glycan array binding signal (z-score),Gal(b1-3)Gal,-0.296
same,glycan array binding signal (z-score),Gal(b1-3)GalNAc,-0.295
same,glycan array binding signal (z-score),[30],-0.304
same,glycan array binding signal (z-score),[31],-0.31
same,glycan array binding signal (z-score),[32],-0.31
same,glycan array binding signal (z-score),Gal(b1-3)GlcNAc,-0.287
same,glycan array binding signal (z-score),[33],-0.293
same,glycan array binding signal (z-score),[34],-0.305
same,glycan array binding signal (z-score),[35],-0.309
same,glycan array binding signal (z-score),[36],-0.316
